# The whole screen tested about 52,000 compounds, of which about 4,300 (8.3%) were called active. Cut-off read from the data, not from the text of the source: active = survival mostly below about 52% (no sharp cut-off); inactive = mostly above about 56%. The list shows a part of the results.
# Tested on: DeltatarO mutant
# Assay: growth inhibition of S. aureus wild type versus tarO mutant, primary screen, teichoic acid synthesis inhibitors, RN4220, OD600 (AID 463173)
# Settings: OD600, 18 h, active compounds read low, screened at 18.75 µg/mL (by protocol)
row,Compound,survival
1,COc1ccc(N(C(=O)COc2ccc(Br)cc2)S(=O)(=O)c2ccc(C)cc2)cc1,inactive: 81%
2,O=C(O)c1cccc(-n2cccc2)c1,inactive: 97%
3,Cc1ccc(-n2ncc3c(N(CCO)Cc4ccccc4)ncnc32)cc1,active: 8%
4,COc1ccc(CCCc2nnc(SCC(=O)Nc3ccccc3F)o2)cc1C,inactive: 49%
5,CCOCCCNC(=O)CN1C(=O)c2c(c3ccccc3n2C)C1c1ccc(OC)cc1 (centres undefined),inactive: 84%
6,COc1cccc(N(Cc2nnc3n2CCCCC3)C(=O)Nc2cccc(Cl)c2)c1,inactive: 81%
7,O=C(O)CC1c2ccccc2Oc2ccccc21,inactive: 92%
8,CCOc1ccccc1NC(=O)N1CCCn2nc(C)cc21,inactive: 86%
9,O=C(NCC(c1cccs1)S(=O)(=O)c1cccs1)c1ccc(C(F)(F)F)cc1 (centres undefined),inactive: 89%
10,COc1ccccc1NC(=O)c1ccc2[nH]c(C)cc(=O)c2c1,inactive: 77%
11,Cc1cc(Br)ccc1NC(=O)COc1cc(=O)n(C)c2ccccc12,inactive: 111%
12,CN(C)c1ccc(C(CNC(=O)c2ccccc2Cl)N2CCc3ccccc32)cc1 (centres undefined),active: 37%
13,CCCCOc1ccc(C(=O)NCCS(=O)(=O)N2CCN(c3ccccc3OC)CC2)cc1,inactive: 94%
14,Cc1ccc2oc(-c3cc(NC(=O)Cc4ccccc4)ccc3Cl)nc2c1,active: 52%
15,c1ccc(Cn2nnnc2C(c2cccnc2)N2CCN(c3ccccc3)CC2)cc1 (centres undefined),inactive: 83%
16,CCN(C(=O)CSc1nc2ccccc2nc1Cc1cccc(OC)c1)c1cccc(C)c1,active: 0%
17,O=C(NC1CC(=O)N(c2ccc(F)cc2)C1)c1ccc(S(=O)(=O)N2CCCC2)cc1 (centres undefined),inactive: 69%
18,O=C(COc1ccc(Cl)cc1)Nc1ccc(O)c(-c2nc3ccccc3s2)c1,inactive: 94%
19,Cc1ccc(Cn2c(C(=O)O)c(CNCCc3cccs3)c3ccc(C)cc32)cc1,inactive: 82%
20,Cc1ccc(NC(=O)Nc2nc3c(s2)CCCCCC3)cc1C,inactive: 69%

row,Compound,survival
1,Cc1ccc2c(c1)cc(C(=O)NCc1ccc(F)cc1)n2C,inactive: 70%
2,COc1ccccc1N1CCN(c2ccc(=O)n(CC(=O)O)n2)CC1,inactive: 87%
3,CCOCC(=O)Nc1ccc(-c2cn3c(C)csc3n2)cc1,inactive: 130%
4,Cc1ccc2[nH]c(=O)c(-c3nc4c(C)cccn4c3NCc3ccco3)cc2c1,inactive: 61%
5,NCC(O)CNCCc1ccccc1 (centres undefined),inactive: 98%
6,O=c1c2sc3ccccc3c2n(Cc2ccccc2F)c(=O)n1-c1ccccc1Cl,inactive: 88%
7,Cc1ccccc1NC(=O)c1c(C)oc2ccc(O)c(CN3CCCC(C)C3)c12 (centres undefined),inactive: 108%
8,COc1cccc(CNC(=O)CSc2nc3ccccc3nc2Cc2ccccc2)c1,inactive: 69%
9,COc1cc2c(cc1OC)C(c1ccc(F)cc1)N(c1ccccc1)C(=O)C2 (centres undefined),inactive: 74%
10,Cc1nnc(N2CCC(C(=O)NCc3ccc(F)cc3)CC2)c2nn(-c3ccc(Cl)cc3)c(C)c12,inactive: 104%
11,CCN(CC)S(=O)(=O)c1ccc2nc(NC(=O)c3ccccc3OC)sc2c1,inactive: 89%
12,CCOc1ccc(C2C(C(N)=O)=C(C)Nc3nc(-c4ccc(OC)cc4)nn32)cc1 (centres undefined),inactive: 87%
13,O=C(C1CCN(S(=O)(=O)c2ccc(Br)s2)CC1)N1CCN(c2ccc(F)cc2)CC1,inactive: 87%
14,COc1ccccc1C(=O)Nc1cccc(OCc2cc(=O)n3c4c(sc3n2)CCCC4)c1,active: 39%
15,COc1ccccc1Nc1nn2c(=O)c3ccc(C(=O)NC4CCC(C)CC4)cc3nc2s1 (centres undefined),inactive: 79%
16,COc1ccccc1NC(=O)C1=C(C)NC(=S)NC1C (centres undefined),inactive: 86%
17,COc1cccc(CNc2ncnc3c2nnn3C)c1,inactive: 87%
18,CNC(=O)C1CCC(Cn2c(=O)c3sccc3n(CC(=O)N3CCCC3)c2=O)CC1 (centres undefined),inactive: 83%
19,COc1cccc(-c2csc(N3CCN(C(=S)NCc4ccco4)CC3)n2)c1,inactive: 91%
20,COc1cccc(C2CC(=O)Nc3c2c(=O)[nH]c2ncnn32)c1OC (centres undefined),inactive: 60%

row,Compound,survival
1,CCN(C(=O)CSc1nc(-c2ccccc2)no1)c1cccc(C)c1,active: -3%
2,Cc1cccc2cc(CN(C(=O)c3cccc(Cl)c3)c3ccccc3)c(=O)[nH]c12,inactive: 76%
3,Cc1c(C(=O)Nc2ccccc2)sc2nc(-c3cc4ccccc4oc3=O)[nH]c(=O)c12,inactive: 66%
4,O=C(C1CCCN(S(=O)(=O)c2ccc(Cl)cc2)C1)N1CCCC1 (centres undefined),inactive: 86%
5,COc1ccc(-c2nnn(CC(=O)N(Cc3ccccc3)C(C)C(=O)NC3CCCC3)n2)cc1OC (centres undefined),inactive: 84%
6,CCc1ccc2oc(C(=O)Nc3cc(Cl)ccc3OC)cc(=O)c2c1,inactive: 65%
7,Fc1ccc(Nc2nc(-c3cccc(Cl)c3)c3c(n2)-c2ccccc2OC3)cc1,inactive: 87%
8,Cc1ccc(NC(=O)CCn2nc(-c3ccccc3)c3ccccc3c2=O)c(C)c1,active: 52%
9,C=CCc1c(C)nc(-c2ccccc2)nc1NN,inactive: 92%
10,O=C(Nc1ccc2nc(SCC(=O)N3CCCc4ccccc43)sc2c1)c1ccccc1F,inactive: 76%
11,O=C(Nc1cccc(C(=O)N2CCN(c3ccccc3)CC2)c1)c1nsc2ccccc12,inactive: 86%
12,CCc1ccc(C2=C(C)C(N3CCC(C(=O)Nc4ccc(F)cc4)CC3)=NS2(=O)=O)cc1,inactive: 80%
13,Cc1cc2ccccc2n1CCNC(=O)c1ccccc1F,inactive: 84%
14,O=C(NCC(c1ccc2c(c1)OCO2)N1CCN(c2ccccc2)CC1)C(=O)Nc1ccccc1 (centres undefined),inactive: 75%
15,CC(C)c1ccc(S(=O)(=O)c2nnn3c2nc(NCc2cccs2)c2sccc23)cc1,inactive: 76%
16,O=C(OCc1cc(=O)n2nc(C3CC3)sc2n1)c1ccc(NC(=O)c2ccccc2Cl)cc1,inactive: 82%
17,Cc1cccc(NC(=O)c2ccc(F)c(S(=O)(=O)NCc3ccc4c(c3)OCO4)c2)c1,inactive: 79%
18,Cc1ccc(C(=O)NCCSc2c[nH]c3ccccc23)cc1C,active: 46%
19,Cc1ccn2c(Nc3ccc4c(c3)OCO4)c(-c3ccc(C)o3)nc2c1,inactive: 81%
